Reference: PubChem BioAssay AID624417 (National Center for Advancing Translational Sciences (NCATS), 2012)
Out of some 410,000 compounds screened, about 6,400 (1.6%) were called active. The inconclusive results got no clear call from the source; some entries with a clear call stand among them for comparison. The call rests on the fitted dose curve; in most records, active means well fitted inhibition curve with a large enough effect; inconclusive means small, poorly fitted or top-dose-only effect; inactive means no such curve, though single readings can be large or run the other way. Potencies of inconclusive entries are left out as doubtful fits.

Target: Glucagon-like peptide 1 receptor (Homo sapiens) (UniProt P43220)
Chain of UniProt P43220 (P43220 whole entry, looked up): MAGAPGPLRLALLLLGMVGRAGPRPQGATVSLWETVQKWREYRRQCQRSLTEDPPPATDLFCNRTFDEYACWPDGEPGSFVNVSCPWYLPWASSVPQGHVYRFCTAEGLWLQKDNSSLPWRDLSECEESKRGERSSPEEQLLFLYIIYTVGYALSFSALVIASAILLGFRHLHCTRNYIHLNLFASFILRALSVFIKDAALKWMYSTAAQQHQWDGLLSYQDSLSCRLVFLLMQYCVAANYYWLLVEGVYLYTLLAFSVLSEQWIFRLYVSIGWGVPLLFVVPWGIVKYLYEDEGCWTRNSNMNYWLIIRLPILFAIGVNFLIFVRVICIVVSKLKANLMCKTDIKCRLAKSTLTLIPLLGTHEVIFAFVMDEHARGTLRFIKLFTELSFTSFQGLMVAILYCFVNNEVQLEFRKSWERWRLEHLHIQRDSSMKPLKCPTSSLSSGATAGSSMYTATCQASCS
Assay: qHTS of GLP-1 Receptor Inverse Agonists (Inhibition Mode); further: nearly all actives have a fitted effect of over 55% in size
Conditions: HEK293 GLP-1R CRE-luciferase, luminescence, 24 h, GLP-1R form is constitutively active; activity change, negative = inhibition: at 38.3 µM (top of the series) unless noted
Method in brief: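 HEK293 cells stably co-expressing constitutively active GLP-1R and a cAMP-responsive luciferase reporter were seeded in DMEM with 10% Nu serum, given compounds after 12 h, and incubated 24 h at 37 deg C. Luminescence was then read.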
On the % scale 0 is the no-effect control and ±100 the full control effect; potency means the concentration at half of the fitted maximal effect; tags describe the fitted curve by direction and shape.

Structure (SMILES)	Potency	activity change, negative = inhibition
Cc1noc(C)c1COc1ccc(C(=O)NNC(=O)c2ccccc2O)cc1	inconclusive [inhibitor, partial curve, poor fit]	
CCC(C)(C)c1ccc(OC(=O)c2cccnc2Cl)cc1	inconclusive [inhibitor, single point]	
Cc1ccc(C(=O)Nc2cccc(S(=O)(=O)N3CCCCC3)c2)cc1[N+](=O)[O-]	inconclusive [inhibitor, partial curve, poor fit]	
O=C(c1cccc(C(F)(F)F)c1)C1CCCN(C(=O)C2CCOCC2)C1 (stereo not drawn)	inconclusive [inhibitor, partial curve, poor fit]	
Cc1cc(C)cc(OCC(=O)NNC(=O)c2cc3ccccc3o2)c1	inconclusive [inhibitor, partial curve, poor fit]	
COc1ccc(C(O)c2nc(-c3cc(F)cc(Cl)c3)cs2)cc1 (stereo not drawn)	inconclusive [inhibitor, single point]	
CSc1nnc2n(C)c3c(c(=O)n12)C1(CCCC1)Cc1ccccc1-3		inactive: 0%
O=C(CSc1nc2ccccc2n1Cc1ccccc1)NCc1ccccc1	inconclusive [inhibitor, single point]	
CCc1cc(CN2CCOCC2)c(NC(=O)c2ccccc2)s1		inactive: -1.71% [at 0.307 µM]
COc1ccc(-c2cc(C(=O)Nc3cc(OC)cc(C(=O)Nc4cccc(C(F)(F)F)c4)c3)[nH]n2)cc1	inconclusive [inhibitor, partial curve, poor fit]	
O=C(Nc1ccccc1Cl)N1CCCN(c2nc(-c3ccccc3)ns2)CC1	inconclusive [inhibitor, partial curve, poor fit]	
COc1ccc(-c2ccc(C(=O)Nc3ccc4c(c3)OCO4)c3occc23)c(C)c1	inconclusive [inhibitor, partial curve, poor fit]	
CCOc1ccc(Nc2c(S(=O)(=O)c3ccccc3)cnc3ccc(CC)cc23)cc1	inconclusive [inhibitor, single point]	
CCOc1ccc(NS(=O)(=O)c2ccc(C(=O)NCC(c3cccs3)N3CCOCC3)cc2)cc1 (stereo not drawn)	inconclusive [inhibitor, single point]	
Cc1ccc(CN2CCN(C/C=C/c3ccc(F)cc3)CC2CCO)o1 (stereo not drawn)	inconclusive [inhibitor, single point]	
COC(=O)c1cc2c(=O)n3ccccc3nc2n(Cc2cccnc2)c1=N		inactive: 5.51%
CCCCNc1c(N2CCN(C(=O)OCC)CC2)c(=O)c1=O		inactive: 2.51%
CCCCn1nnnc1SCC(=O)c1cc(Cl)ccc1OC	inconclusive [inhibitor, single point]	
Nc1ccccc1CCc1ccccc1N	inconclusive [inhibitor, partial curve, poor fit]	
O=c1[nH]c(C2CCN(S(=O)(=O)c3ccc4c(c3)OCCO4)CC2)nc2c1nnn2Cc1cccc(F)c1		inactive: 26%
O=C(Nc1ncc(Cc2ccc(SC(F)F)cc2)s1)c1ccccc1	inconclusive [inhibitor, full curve, poor fit]	
CCOC(=O)c1nc(NNC(=O)c2ccc([N+](=O)[O-])cc2)sc1C	inconclusive [inhibitor, single point]	

Structure (SMILES)	Potency	activity change, negative = inhibition
Cc1ccc(S(=O)(=O)c2cn(C)c3cc(N4CCN(C)CC4)c(F)cc3c2=O)c(C)c1		inactive: 51.1%
COc1ccc(NC(=O)Nc2nc(C)cc(C)n2)c(OC)c1		inactive: -18.3%
CC1(C)CNc2cc(N)ccc2S1	inconclusive [inhibitor, single point]	
CCn1c(N2CCN(Cc3ccc([N+](=O)[O-])cc3)CC2)nc2ccccc21	inconclusive [inhibitor, partial curve, poor fit]	
CN(Cc1ccc(Cl)cc1)C(=O)CCl	inconclusive [inhibitor, partial curve, poor fit]	
Oc1ccccc1N=Cc1c(O)ccc2ccccc12	inconclusive [inhibitor, single point]	
CC(C)N1CCC(N2CCN(CCCc3ccccc3)CC2CCO)CC1 (stereo not drawn)	inconclusive [inhibitor, partial curve, poor fit]	
S=C(NCCCN1CCOCC1)N(Cc1ccccc1)Cc1ccccc1	inconclusive [inhibitor, single point]	
COc1ccc(C(=O)NNC(=O)CSc2nnc(C)n2C)cc1		inactive: -9.88%
CC(=O)CC(c1ccccc1)S(=O)(=O)c1ccc(C)cc1 (stereo not drawn)		inactive: 2.47%
COc1cc(CNc2ccc(CNc3ncn[nH]3)cc2)cc(Cl)c1OCc1ccccc1	inconclusive [inhibitor, full curve, poor fit]	
CC1(C)Cc2ccccc2C(NNC(=O)c2ccccc2)=N1		inactive: -18.2% [at 7.66 µM]
N#CCSc1nnc(Cc2cccc3ccccc23)n1C1CCCCC1	inconclusive [inhibitor, single point]	
Cc1ccc2c(c1)C(=O)C(=O)N2CCCOc1ccccc1C	inconclusive [inhibitor, single point]	
C/C(=N/NC(=O)c1cc(-c2ccccc2)nc2c(Cl)cccc12)c1cccnc1	inconclusive [inhibitor, single point]	
CCCn1c(C)cc(C(=O)COC(=O)c2nccnc2N)c1C	inconclusive [inhibitor, single point]	
CCCCNC(=O)CSc1nc2ccccc2nc1Cc1ccccc1	inconclusive [inhibitor, single point]	
COc1ccc(N2CCOCC2)c(NC(=O)COc2cccc(C)c2C)c1	inconclusive [inhibitor, single point]	
COc1cc(OC)c(NC(=O)CSc2nc3ccncc3[nH]2)cc1Cl		inactive: 0.451%
COc1ccc(C2(O)CCN(CC(=O)Nc3nc(-c4ccccc4)cs3)CC2)cc1	active: 7.08 µM	
CCC(NC(=S)NCc1ccc(F)cc1)c1ccc(C(C)C)cc1 (stereo not drawn)	inconclusive [inhibitor, partial curve, poor fit]	
